# Records with an inconclusive call do not appear. The calls were made as follows: active = hit-call score of the fitted dose curve at least 0.9, where 1 is the maximum; inconclusive = response in the unintended direction; inactive = score below 0.9. For part of its entries the source gives two or more results. The other results are left out here. The source may hold further records. Values given together are repeated measurements across runs, samples, wells, individuals or studies.
# Biological target: Estrogen receptor (Homo sapiens) (UniProt P03372)
# Sequence of UniProt P03372 (P03372 whole entry, looked up): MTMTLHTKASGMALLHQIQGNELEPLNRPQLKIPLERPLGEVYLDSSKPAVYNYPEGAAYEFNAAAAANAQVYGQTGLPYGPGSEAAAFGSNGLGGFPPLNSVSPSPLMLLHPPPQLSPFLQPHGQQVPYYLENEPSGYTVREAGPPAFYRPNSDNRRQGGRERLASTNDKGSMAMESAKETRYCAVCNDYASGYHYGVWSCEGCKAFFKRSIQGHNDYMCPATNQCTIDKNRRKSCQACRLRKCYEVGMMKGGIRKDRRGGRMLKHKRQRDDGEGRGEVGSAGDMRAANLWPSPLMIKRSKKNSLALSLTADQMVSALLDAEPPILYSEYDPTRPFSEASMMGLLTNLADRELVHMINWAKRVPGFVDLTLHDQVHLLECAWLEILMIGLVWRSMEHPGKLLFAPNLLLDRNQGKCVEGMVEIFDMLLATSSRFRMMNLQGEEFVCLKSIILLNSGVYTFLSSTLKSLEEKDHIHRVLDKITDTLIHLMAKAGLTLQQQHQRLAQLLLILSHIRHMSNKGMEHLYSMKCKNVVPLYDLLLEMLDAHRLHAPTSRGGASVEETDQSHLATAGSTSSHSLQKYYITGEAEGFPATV
# Experiment: ATG_ERa_TRANS: Attagene TRANS-FACTORIAL HepG2 Assay for human Estrogen Receptor alpha (ERa) (AID 2282970)
# Conditions: HepG2 Attagene TRANS ERa GAL4 reporter, mRNA
# Procedure, shortened: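 Transfected HepG2 cells carrying GAL4-UAS-driven reporter units were dosed for 24 hours. Total RNA was reverse-transcribed, reporter sequences PCR-amplified, FAM-labelled, HpaI-digested and resolved by capillary electrophoresis. Increases over DMSO control defined activity.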
smiles,measurement,value
CCCCCCCc1ccc(O)cc1,AC50,"active: 1.95, 1.39, 4.6, 5.14 µM [separate samples]"

# From PubChem BioAssay (EPA / NIEHS)
